# Laboratory results taken from PubChem BioAssay AID493208 (National Center for Advancing Translational Sciences (NCATS), 2011).
# In all, about 44,000 compounds went through this assay and about 340 (0.77%) were called active. Not shown: some 5% with an inconclusive outcome. Calls follow the shape of the dose curve; as a rule, active = well fitted inhibition curve with a large enough effect; inconclusive = small, poorly fitted or top-dose-only effect; inactive = flat fitted curve, though single readings scatter. This is one part of the list.
# Assay: Acumen qHTS Assay for Inhibitors of the mTORC1 Signaling Pathway in MEF (Tsc2-/-, p53-/-) Cells: Sytravon;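 also: plate controls were DMSO for no effect and rapamycin for full effect; nearly all actives have a fitted effect of over 50% in size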
# Details: phospho-rpS6 immunofluorescence/PI, 24 h; series mostly up to 38.3 µM; activity change, negative = inhibition: at the top concentration
# Method in brief: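 Compounds act on Tsc2-/-, p53-/- fibroblasts carrying an empty vector for 24 h before fixation and dual staining for phospho-S6 and DNA (propidium iodide). Values are percentages of cells above a rapamycin-defined pS6/PI threshold.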
row,Compound,"activity change, negative = inhibition"
1,CC(=O)c1cccc(Nc2ccc3cc(S(=O)(=O)N4CCC(C)CC4)ccc3n2)c1,inactive: 2.27%
2,O=C(COc1ccccc1-c1nnc(-c2ccccc2)o1)Nc1ccc(Br)cc1F,inactive: 0.181%
3,CCC(=O)N1CCc2cc(S(=O)(=O)NCCC(=O)Nc3ccc(C)cc3)ccc21,inactive: 1.6%
4,CCCNC(=O)CCNS(=O)(=O)c1ccc2c(c1)c(=O)n(C)c(=O)n2C,inactive: -3.15%
5,CC(=O)c1ccc(NS(=O)(=O)c2cc(-c3cc(C)no3)ccc2C)cc1,inactive: -13.5%
6,CC(C)c1ccc(-c2nnc3n(CCc4ccccc4)c(=O)c4ccccc4n23)cc1,inactive: -10.7%
7,Cc1ccc(CNC(=O)CCc2c(C)nc3nc(CNC(=O)OC(C)(C)C)nn3c2C)cc1,inactive: 0.589%
8,Cc1cccc(NCc2nc3ccccc3n2CCOc2ccccc2C)c1,inactive: -9.13%
9,COc1ccc(NC(=O)c2c(C)oc3ccc(O)c(CN4CCCC4)c23)cc1Cl,inactive: 2.78%
10,COc1cc(C(=O)n2nc(-c3ccco3)nc2NCc2ccc(Cl)cc2)cc(OC)c1OC,inactive: -2.55%
11,COc1ccc(C(=O)NCC(c2ccc(N(C)C)cc2)N2CCCC2)c(OC)c1 (configuration not stated),inactive: 1.74%
12,Cc1cccc(-c2nc(CSc3nncn4c3cc3oc(C)cc34)c(C)o2)c1,inactive: -6.55%
13,COc1ccccc1OCC(=O)Nc1nc2c(s1)CC(C)CC2 (configuration not stated),inactive: -17.8%
14,Cc1ccc2nc(-c3ccc(Cl)cc3)cc(C(=O)OCC(=O)c3ccccc3)c2c1,inactive: 2.21%
15,CCSc1ncc(Cl)c(C(=O)Nc2c(C(=O)Nc3cccc(C)c3)oc3ccccc23)n1,inactive: -3.41%
16,COc1ccc(C(=O)NCCc2sc(-c3ccc(F)cc3)nc2C)cc1OC,inactive: 0%
17,CC1CCC(NC(=O)C2(C)Cc3ccccc3C(=O)N2Cc2ccc(F)cc2)CC1 (configuration not stated),inactive: 0.907%
18,CCC(C(=O)NC1CCCCC1)n1c(SCc2ccc(F)cc2)nc2ccncc21 (configuration not stated),inactive: -2.4%
19,CCC(Cn1nnc2ccccc2c1=O)NC(=O)Nc1ccc(C)cc1C (configuration not stated),inactive: -5.79%
20,CCOc1ccccc1C(=O)NCc1ccc2c(c1)CCN2C(C)=O,inactive: -3.97%
21,Cc1ccc(C2c3[nH]c4ccccc4c3CCN2C(=O)Nc2ccc(C)c(C)c2)cc1 (configuration not stated),inactive: 4.78%
22,Cc1ccc(S(=O)(=O)Nc2cccc(-c3ccc(N4CCCCC4)nn3)c2)s1,inactive: 2.86%
23,CCOC(=O)C(C)Sc1nnc2ccc3ccccc3n12 (configuration not stated),inactive: -0.153%
24,Cc1ccc(NC(=O)C(=O)NCc2ccc(Cl)cc2)cc1,inactive: -3.54%
25,O=C(NCCc1ccc(Cl)cc1)c1ccc(CSCc2ccccc2Cl)o1,inactive: 5.35%

row,Compound,"activity change, negative = inhibition"
1,CC(=O)c1cccc(NC(=O)c2nc(-c3ccc(C)cc3)n3c2CCCCC3)c1,inactive: -9.35%
2,Cc1cccc(NC(=O)C2CCCN(S(=O)(=O)c3cccc4nonc34)C2)c1 (configuration not stated),inactive: 0.24%
3,COc1ccc(C2(CNC(=O)C(=O)Nc3cccc(C(F)(F)F)c3)CCCC2)cc1OC,inactive: -5.55%
4,COc1cc(OC)c(NC(=O)CCn2cnc3onc(-c4ccc(F)cc4)c3c2=O)cc1Cl,inactive: 8.26%
5,CCOc1ccc(NC(=O)N(Cc2c[nH]c3ccccc23)C2CCCCC2)cc1,inactive: 1%
6,Cc1ccc(CNCc2c(C(=O)O)n(Cc3ccccc3C)c3cc(C)ccc23)cc1,inactive: -6.57%
7,CCCCNC(=O)c1[nH]c2ccccc2c1Sc1ccc(C)cc1,inactive: -0.463%
8,Cc1oc(-c2ccc(C(=O)NCc3ccc(N(C)C)cc3)cc2)nc1COc1ccccc1,inactive: 0.249%
9,CC(NC(=O)CN(C)S(=O)(=O)c1ccc2c(c1)c(=O)n(C)c(=O)n2C)c1ccccc1 (configuration not stated),inactive: -2.5%
10,Cc1cc2c(=O)c(C(=O)c3ccncc3)cn(CC(=O)Nc3cccc(C)c3C)c2cc1C,inactive: 0.702%
11,Cc1ccc2c(c1)c(=O)c(C(=O)c1ccncc1)cn2CC(=O)Nc1c(C)cccc1C,inactive: 1.14%
12,Cn1cc(S(=O)(=O)N2CCCCC2)cc1C(=O)N1CCN(c2ccc(F)cc2)CC1,inactive: 0.618%
13,Cc1cc(=O)n(CC(=O)NCCC(C)C)c2c1c(C)nn2C,inactive: 9.13%
14,Cc1ccc(C)c(S(=O)(=O)c2cnc(SCC(=O)Nc3ccc(F)cc3F)[nH]c2=O)c1,inactive: -0.318%
15,CCc1ccc(NC(=O)CSc2nccn2C2CCCC2)cc1,inactive: -16.3%
16,Cc1ccc(C)c(-c2csc(-c3c(N)c(C(=O)c4ccc5c(c4)OCO5)n4ccccc34)n2)c1,inactive: 0.348%
17,CCN(CC)CCNC(=O)C1CCCN(c2ncnc3onc(C)c23)C1 (configuration not stated),inactive: -6.78%
18,Cc1c(C(N)=O)nnn1-c1ccc(Br)cc1,inactive: -9.79%
19,COc1ccc(CCNC(=O)Cn2ncc3c(C)n(Cc4ccccc4F)c(C)c3c2=O)cc1OC,inactive: -0.365%
20,COc1ccc(CCNC(=O)Cn2nc(C)n3c(cc4occc43)c2=O)cc1OC,inactive: -17.6%
21,CCOC(=O)c1c(S(=O)(=O)N2CCCC(C(=O)N3CCN(c4ccc(F)cc4)CC3)C2)c(C)n(C)c1C (configuration not stated),inactive: -5.06%
22,Cc1ccc2nc(N(Cc3cccnc3)C(=O)C3CCCCC3)sc2c1,inactive: 1.34%
23,CCn1cc(C(=O)OCC(=O)Nc2cc(Cl)ccc2OC)c(=O)c2ccc(C)nc21,inactive: -4.47%
24,COc1ccc(NC(c2ccc(F)cc2)c2nnc(-c3ccccc3Cl)o2)cc1Cl (configuration not stated),inactive: -28.4%
25,CCc1ccc2nc(N3CCC(C(=O)O)CC3)sc2c1,inactive: -1.46%

row,Compound,"activity change, negative = inhibition"
1,COc1cc(CNCc2c(C(=O)O)c(C)n(Cc3cccc(Cl)c3)c2C)cc(OC)c1OC,inactive: -6.61%
2,COc1ccc(Br)cc1CNC(=O)C(C)n1nc(C)n2c(cc3occc32)c1=O (configuration not stated),inactive: 1.98%
3,CCC(C(=O)N1CCN(c2cc(Cl)ccc2C)CC1)n1nc(C)n2c(cc3occc32)c1=O (configuration not stated),inactive: -15.3%
4,CCSc1nc2n(n1)C(c1ccc(CC)cc1)C(C(=O)Nc1ccccc1OC)=C(C)N2 (configuration not stated),inactive: -0.14%
5,Cc1c(Cl)cccc1-n1c(CCC(=O)O)ccc1-c1cccs1,inactive: 3.12%
6,CCc1cccc(NC(=O)CN2C(=O)CCc3cc(S(=O)(=O)N4CCOCC4)ccc32)c1,inactive: 3.76%
7,Cc1ccc2oc(C(=O)Nc3nnc(CC(C)C)s3)cc(=O)c2c1,inactive: 1.04%
8,CCN(CC)c1cc(C)nc2nc(-c3ccc(C)cc3)nn12,inactive: -0.734%
9,Cc1ccc(CN2CCSc3ccc(C(=O)Nc4ccc(F)cc4F)cc32)cc1,inactive: 3.79%
10,COc1ccc(N2CCN(C(=O)c3cc4c(=O)n(Cc5ccccc5)ccc4nc3C)CC2)cc1,inactive: -7.26%
11,COC(=O)c1nnn(CC(=O)NC(=O)Nc2ccccc2F)c1C(=O)OC,inactive: -12%
12,Cc1noc(NS(=O)(=O)c2ccc(NC(=O)c3ccc(Br)cc3)cc2)c1C,inactive: -0.356%
13,Cc1c(Cl)cccc1NC(=O)c1ccc2nc(C(C)C)oc2c1,inactive: -0.419%
14,CCc1ccccc1Nc1nn2c(=O)c3ccc(C(=O)Nc4ccc(OC)cc4)cc3nc2s1,inactive: -9.53%
15,O=C(CSc1nc2ccccc2nc1Cc1ccccc1)N1CCN(c2ccccc2)CC1,inactive: 1.02%
16,Cc1cccc(NC(=O)NCCOCCn2c(=O)oc3ccccc32)c1C,inactive: 2.6%
17,CC(=O)Nc1cc(-c2ccccc2)nn1Cc1cccc(Cl)c1,inactive: 6.64%
18,COc1ccc(CCC(=O)NCc2nc3cccnc3n2Cc2ccccc2)cc1,inactive: -2.39%
19,CC1Cc2cc(S(=O)(=O)CCC(=O)Nc3ccc(Cl)cc3F)ccc2N1C(=O)C1CC1 (configuration not stated),inactive: -15.9%
20,CC(C)Oc1ccc(C(=O)Nc2ccc(-c3nc4ccccc4s3)cc2)cc1,inactive: -10.5%
21,Cc1ccccc1Cn1c(CN2CCN(c3cc(Cl)ccc3C)CC2)nc2c1c(=O)[nH]c(=O)n2C,inactive: 0.19%
22,COc1ccccc1C(=O)Nc1cc(-c2ccc(C)cc2)no1,inactive: 1.57%
23,COc1ccc(CCNC(=O)CCc2c(C)c3cc4c(C)coc4cc3oc2=O)cc1,inactive: 0.0842%
24,Cc1ccc(Cl)cc1NC(=O)CCCN1C(=O)CCn2nc(-c3cn(C)c4ccccc34)cc21,inactive: -0.0999%
25,CCOc1ccc(CCNC(=O)CCn2c(=O)c3cccn3c3cccnc32)cc1,inactive: 3.52%

row,Compound,"activity change, negative = inhibition"
1,COc1ccc(C)cc1S(=O)(=O)NCC(c1ccc(N(C)C)cc1)N1CCc2ccccc21 (configuration not stated),inactive: 0%
2,COc1ccc(N2CCN(C(=O)c3cc4cc5ccc(Cl)cc5nc4o3)CC2)cc1,inactive: -0.101%
3,O=C(O)c1ccc(N2C(=O)c3[nH]nc(-c4ccccc4)c3C2c2cccc(F)c2)cc1 (configuration not stated),inactive: -1.12%
4,CCC(=O)Nc1ccccc1-c1nc2ccccc2n(C(C)C(=O)Nc2ccc(OC)cc2)c1=O (configuration not stated),inactive: -10.7%
5,CN(c1ccccc1)c1ncnc2c1cnn2C,inactive: -20.7%
6,Cc1ccc(NC(=O)Cn2c(=O)oc3cc(S(=O)(=O)N4CCC(C)CC4)ccc32)cc1Cl,inactive: -28.6%
7,Cc1cc(NC(=O)N2CCC(CN3CCOCC3)CC2)ccc1Br,inactive: -6.76%
8,COc1cccc(C2C(=O)N(C3CCCCC3)CC(=O)N2Cc2ccc(Cl)cc2)c1 (configuration not stated),inactive: 2.28%
9,CCNc1nc(Oc2ccc(=O)n(-c3ccccc3)n2)nc(N(C)C)n1,inactive: -0.339%
10,CCc1ccc(C2C(C(=O)Nc3ccc(Cl)cc3)=C(C)Nc3ncnn32)cc1 (configuration not stated),inactive: 1.72%
11,COc1cccc(-c2nc3c(c(C)nn3-c3ccccc3)c3cc(OC)c(OC)cc23)c1,inactive: 2.49%
12,Cc1ccc2c(c1)C(=O)OC(C(=O)Nc1ncc(Cc3ccccc3)s1)C2 (configuration not stated),inactive: 5.4%
13,CC1CCCCN1C(=O)CSc1n[nH]c(-c2ccccc2)n1 (configuration not stated),inactive: -6.68%
14,CC(=O)c1cccc(-n2c(=O)c3c4c(sc3n(CC(=O)c3ccc(Cl)cc3)c2=O)CN(C(C)=O)CC4)c1,inactive: -8.61%
15,CCOc1cc(C(=O)Nc2ccc(-c3nc4cc(Cl)ccc4o3)cc2)cc(OCC)c1OCC,inactive: 1.59%
16,O=C(Nc1cccc(Cl)c1)c1cc(-c2ccccc2)on1,inactive: -0.64%
17,O=c1[nH]c(C2CCCN(S(=O)(=O)c3ccccc3Cl)C2)nc2c1nnn2Cc1ccc(OC(F)(F)F)cc1 (configuration not stated),inactive: -1.86%
18,COc1ccc(CNC(=O)CCCc2nnc3n(CCC(C)C)c(=O)c4sccc4n23)cc1,inactive: -2.04%
19,Cn1cc(C(=O)NCCc2ccc(Cl)cc2)c(=O)c2cc(S(=O)(=O)N3CCOCC3)ccc21,inactive: -4.46%
20,Cc1ccc(CCNC(=O)C2CC(=O)N(CCc3ccccc3)C2)cc1 (configuration not stated),inactive: 6.45%
21,CCc1nn(CCCC(=O)N2CCN(c3ccc(OC)cc3)CC2)c(=O)c2cc3occc3n12,inactive: -2.8%
22,COc1ccc(CCNC(=O)c2ccc3c(c2)c(C)c(C)n3Cc2ccccc2)c(OC)c1OC,inactive: -10.1%
